Binding signal data for 14 molecules are collected here from article PMC12136788.

The other results are listed elsewhere or left out.

Sequences and labels used below:
T1: UNK ZnF1-3 (human, UniProt Q9C0B0 31-174)
T1 sequence: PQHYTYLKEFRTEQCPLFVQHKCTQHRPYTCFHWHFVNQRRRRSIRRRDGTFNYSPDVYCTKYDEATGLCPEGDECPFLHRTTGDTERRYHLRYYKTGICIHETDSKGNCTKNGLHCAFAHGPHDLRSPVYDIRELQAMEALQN

B1: chr16:94664382:94664383:+_ENSMUSG00000040785_ENSMUST00000117648|mus_mus|FALSE|FALSE (ssRNA)
RNA: GGGAGUUCUACAGUCCGACGAUCUCCUGGUAUGGACUUCACAUCCUCAGACAGUGCUUCAGACUUUACAUCUGGUUGAAAUUCCCUAGCAGUUGGAUUUAGUGGUAGUUUAACUCGUAAAUAUUCUCCUGUUUUUGAAAUGUCCAACAGAGGAUUGAGCAUCA
B2: chr3:157717571:157717572:+_ENSMUSG00000063052_ENSMUST00000156597|mus_mus|motif|central (ssRNA)
RNA: GGGAGUUCUACAGUCCGACGAUCUCUUGAGUUCCUUUAGCUAUAAUUUCUCUUCGAAUGGUUCUUAGAGGAUUUCCUUCGGGUGCCAGGAAUUUCAAAUGAAGAUUUCCCAAUGAGCAGGGCAGACUACUAAUAUCAUUGUUGCAACAGAGGAUUGAGCAUCA
B3: chr11:119138191:119138192:+_ENSMUSG00000025579_ENSMUST00000026666|mus_hu|FALSE|FALSE (ssRNA)
RNA: GGGAGUUCUACAGUCCGACGAUCGCCGGUCUCGUUGGUGAUGAAAACCCCCCUCCGCAGACCCUCGUCGUAGGGCCUGUAGCUCCCGGCAGGGCCCGAGCUGCUGAUGGCAGGAUCCACGAUCAUCAUGUAGCGCCGGCCGCCCAACAGAGGAUUGAGCAUCA
B4: 26111430_26111550_622_CDS_ENSMUSG00000045039_ENSMUST00000128119|mouse|control|control (ssRNA)
RNA: GGGAGUUCUACAGUCCGACGAUCAGCCUCAAUGGGUGGGGGCCGGGUGCUCCCACUCAGACUAGCAAGCAGAGGGCCUUGGGGCGAGUCACCGUCAUACACAAAGAGGUAGUCAUAAGUGCACUCCGUGUCCAGGAAAAGGAACAACAGAGGAUUGAGCAUCA
B5: chr5:92386950:92386951:-_ENSMUSG00000029397_ENSMUST00000031345|mus_hu|FALSE|FALSE (ssRNA)
RNA: GGGAGUUCUACAGUCCGACGAUCCUGUUGGGCAUGUUGAAUUUUUUCACAGUUUAUGCACUGCACUUCCUUCACUUUAAAGCGAUCUAGUUGAUGAUCUUCAUUGUUAUCAUGACACAAGCGGCAAGUAUAAAGCUUGUCACACAACAGAGGAUUGAGCAUCA
B6: chr6:22256794:22256795:-_ENSMUSG00000029672_ENSMUST00000165576|mus_mus|FALSE|FALSE (ssRNA)
RNA: GGGAGUUCUACAGUCCGACGAUCCCUGUUCUCAAGCAACUUUACUUCAUACACAUUCAAAUAUAUCCAGGCCAUAUGAUACUACUAUGUUGAAUGGCAAAAACUUAAUUUUUAUAUGUUAAGAUGUAUCCAAAAAAAAAAAAACAACAGAGGAUUGAGCAUCA
B7: 56511178_56513202_519_CDS_ENSMUSG00000021024_ENSMUST00000021412|mouse|control|control (ssRNA)
RNA: GGGAGUUCUACAGUCCGACGAUCCUCUUCAUCGAUACCGAUUAAAAUCAUACAACAACCGAGUGGCCUCAUUUCAGCGUUCUGUGUGUAGACUUGAGAAAUAUCAGCAAUUCUUUUGCACAGCAUGUCCACAGGAAUUUCAUACAACAGAGGAUUGAGCAUCA
B8: chr7:157178285:157178286:+_ENSG00000105993_ENST00000429029|hu_mus|FALSE|FALSE (ssRNA)
RNA: GGGAGUUCUACAGUCCGACGAUCGAGUUACUUGUUAUCCAAGCGUAGCAGGUGCUCCUUACCAUUUAUUGUCAAGGACUUUAACUGCCCAUCUUCUUCAACUUCUACUCUUUCUUGACCGUUCUCCACAAUCCUCUUUGUCGUCAACAGAGGAUUGAGCAUCA
B9: chr17:48772226:48772227:-_ENSG00000154945_ENST00000285243|hu_mus|motif|central (ssRNA)
RNA: GGGAGUUCUACAGUCCGACGAUCUAAAAUUGAACAAUUUGUUUAUAAAAGCAACAGAUUCCAGAGUUAUGUAAAAACCCGGAUAAUUUUCAAAAUAACCUUUAUCUUUGAUACAAAAAUAAAGAUGCUAACUCCUUUAGUUCACAACAGAGGAUUGAGCAUCA
B10: chr15:40510687:40510688:+_ENSG00000156970_ENST00000287598|hu_mus|FALSE|FALSE (ssRNA)
RNA: GGGAGUUCUACAGUCCGACGAUCCCAGAGGAGUCCAUCCCAGAAGACAUGGAGGUGCUCCUUGAACAGGAGUAAGUGCGCUAGGUCUGCUAUACCCAACAGAUCUACAUGGUAGGGAGAAGAACAGUUAGCCAGGAUCUUUUGCAACAGAGGAUUGAGCAUCA
B11: chr7:149068622:149068623:-_ENSMUSG00000025139_ENSMUST00000001950|mus_hu|mus_mus_mus_hu_False|68_78 (ssRNA)
RNA: GGGAGUUCUACAGUCCGACGAUCGUGAGGCCUCUGAGUGUGGCUUGUGGUCUGUCCUGUCUGCAGUCUGCUGGUAACACGGAACAUACCAUCUAGAACGUUCCAGUCCCGCCUGACACCUUCAUUCCCAAUGGAGAAGAAAUCCAACAGAGGAUUGAGCAUCA
B12: 91658163_91658283_3640_CDS_ENSMUSG00000022961_ENSMUST00000114036|mouse|control|control (ssRNA)
RNA: GGGAGUUCUACAGUCCGACGAUCUGAAUAAUUAGCAGGUACUGCCAUAGGCUCUGAAAUCUCACUUUGACUCACAGGAGGCUCAGGCUGUGAUAGAGAUUCUCCAGUAGAUAAUGUCACCUCUGUAGACCAAGUAUUGUCAGCCAACAGAGGAUUGAGCAUCA
B13: 80932254_80933479_467_CDS_ENSMUSG00000034818_ENSMUST00000118763|mouse|control|control (ssRNA)
RNA: GGGAGUUCUACAGUCCGACGAUCCACGAAGGCACAGCCUUUGCUGCUGCCAUCUGGUCCUCGAAGCACUGUGCACUCGUCUAUGACGCCAAAGGGCUGGAAGAGCCUGAGCACGUCUUCCUCUGACUGCUGCUUGUUGAGCAUCAACAGAGGAUUGAGCAUCA
B14: chr16:94664741:94664742:+_ENSMUSG00000040785_ENSMUST00000117648|mus_hu|mus_mus_mus_hu_False|1_38 (ssRNA)
RNA: GGGAGUUCUACAGUCCGACGAUCUGGUACUGAUCUUGGUAGCUGAUAUUCAGGAGAAAGGCUGGCCAAGGGUGUAUAUAUGCUGGUGUACUGGGGCAGGCUAGGUAACACGUUUAUGUAUGCUGGCGGUGUCUGGGUGCCAAACAACAGAGGAUUGAGCAUCA

This assay has as its target T1, UNK ZnF1-3. Put plainly: nsRBNS (natural sequence RNA bind-n-seq); RBNS binding buffer (assumed for nsRBNS): 25 mM Tris pH 7.5, 150 mM KCl, 3 mM MgCl2, 0.01% Triton X-100, 500 ug/ml BSA, 20 U/ml SUPERase-In, 4 C; UNK is unkempt and MSI1 is Musashi-1; names of the RNAs are library labels; protein concentration not given here; high values mean tight binding.
Regarding B1, the binding signal worked out at 0.665 enrichment R.

In turn, B2 yielded a binding signal of 1.31 enrichment R. Take B3: the binding signal came out at 0.811 enrichment R.

Turning to B4, the binding signal was found to be 2.27 enrichment R. B5 yielded a binding signal of 0.438 enrichment R. The result for B6 reads 1.35 enrichment R; that for B7, 1.13 enrichment R; that for B8, 0.295 enrichment R. B9 showed a binding signal of 1.5 enrichment R. Take B10: the binding signal worked out at 0.594 enrichment R.

B11 showed a binding signal of 0.779 enrichment R. With B12, the binding signal was 1.01 enrichment R.

With B13, the binding signal is 0.967 enrichment R.

As to B14, the binding signal was 1.37 enrichment R.
